In PMC9911399, “Two distinct binding modes provide the RNA-binding protein RbFox with extraordinary sequence specificity”:
Substitutions are numbered along the chain they refer to; changes in the protein carry UniProt numbers. This is one part of the list.

T1: RBFOX1 RRM (Homo sapiens, UniProt Q9NWB1 109-208)
T1 sequence: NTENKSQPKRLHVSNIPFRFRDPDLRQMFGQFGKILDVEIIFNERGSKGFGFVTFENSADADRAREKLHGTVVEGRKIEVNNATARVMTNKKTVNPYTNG

B1: CUUAAUC (DNA:RNA)
RNA: GGGAGACCGGAAUUCAGAUUGUCCCUUAAUCUUAAAUCCCGUCGUAGCCACCA
DNA 1: CAATCTGAATTCCGGTCTCCC
DNA 2: TGGTGGCTACGACGGGATT
B2: AUCAGCU (DNA:RNA)
RNA: B1 RNA with C25A, U27C, A29G, U30C, C31U
DNA 1: CAATCTGAATTCCGGTCTCCC
DNA 2: TGGTGGCTACGACGGGATT
B3: UUAAGGA (DNA:RNA)
RNA: B1 RNA with C25U, U27A, A29G, U30G, C31A
DNA 1: CAATCTGAATTCCGGTCTCCC
DNA 2: TGGTGGCTACGACGGGATT
B4: AAUCCAC (DNA:RNA)
RNA: B1 RNA with C25A, U26A, A28C, A29C, U30A
DNA 1: CAATCTGAATTCCGGTCTCCC
DNA 2: TGGTGGCTACGACGGGATT
B5: UCGGGCU (DNA:RNA)
RNA: GGGAGACCGGAAUUCAGAUUGUCCUCGGGCUUUAAAUCCCGUCGUAGCCACCA
DNA 1: CAATCTGAATTCCGGTCTCCC
DNA 2: TGGTGGCTACGACGGGATT
B6: CUAUUUG (DNA:RNA)
RNA: B1 RNA with U27A, A28U, A29U, C31G
DNA 1: CAATCTGAATTCCGGTCTCCC
DNA 2: TGGTGGCTACGACGGGATT
B7: GGUCUUU (DNA:RNA)
RNA: B1 RNA with C25G, U26G, A28C, A29U, C31U
DNA 1: CAATCTGAATTCCGGTCTCCC
DNA 2: TGGTGGCTACGACGGGATT
B8: CGGAACC (DNA:RNA)
RNA: B1 RNA with U26G, U27G, U30C
DNA 1: CAATCTGAATTCCGGTCTCCC
DNA 2: TGGTGGCTACGACGGGATT
B9: GUGGCCU (DNA:RNA)
RNA: B5 RNA with U25G, C26U, G29C
DNA 1: CAATCTGAATTCCGGTCTCCC
DNA 2: TGGTGGCTACGACGGGATT
B10: ACCUUUG (DNA:RNA)
RNA: B1 RNA with C25A, U26C, U27C, A28U, A29U, C31G
DNA 1: CAATCTGAATTCCGGTCTCCC
DNA 2: TGGTGGCTACGACGGGATT
B11: UUUCUCC (DNA:RNA)
RNA: B1 RNA with C25U, A28C, A29U, U30C
DNA 1: CAATCTGAATTCCGGTCTCCC
DNA 2: TGGTGGCTACGACGGGATT
B12: CGAGCGU (DNA:RNA)
RNA: B5 RNA with U25C, C26G, G27A, G29C, C30G
DNA 1: CAATCTGAATTCCGGTCTCCC
DNA 2: TGGTGGCTACGACGGGATT
B13: UCCAGGC (DNA:RNA)
RNA: B5 RNA with G27C, G28A, C30G, U31C
DNA 1: CAATCTGAATTCCGGTCTCCC
DNA 2: TGGTGGCTACGACGGGATT
B14: AGCGAGG (DNA:RNA)
RNA: B1 RNA with C25A, U26G, U27C, A28G, U30G, C31G
DNA 1: CAATCTGAATTCCGGTCTCCC
DNA 2: TGGTGGCTACGACGGGATT
B15: CUGGACC (DNA:RNA)
RNA: B1 RNA with U27G, A28G, U30C
DNA 1: CAATCTGAATTCCGGTCTCCC
DNA 2: TGGTGGCTACGACGGGATT
B16: GUUGAGC (DNA:RNA)
RNA: B1 RNA with C25G, A28G, U30G
DNA 1: CAATCTGAATTCCGGTCTCCC
DNA 2: TGGTGGCTACGACGGGATT
B17: CAGGUUC (DNA:RNA)
RNA: B1 RNA with U26A, U27G, A28G, A29U
DNA 1: CAATCTGAATTCCGGTCTCCC
DNA 2: TGGTGGCTACGACGGGATT
B18: AAAGGAA (DNA:RNA)
RNA: B5 RNA with U25A, C26A, G27A, C30A, U31A
DNA 1: CAATCTGAATTCCGGTCTCCC
DNA 2: TGGTGGCTACGACGGGATT
B19: GGAAGCU (DNA:RNA)
RNA: B5 RNA with U25G, C26G, G27A, G28A
DNA 1: CAATCTGAATTCCGGTCTCCC
DNA 2: TGGTGGCTACGACGGGATT
B20: AAUUUGA (DNA:RNA)
RNA: B1 RNA with C25A, U26A, A28U, A29U, U30G, C31A
DNA 1: CAATCTGAATTCCGGTCTCCC
DNA 2: TGGTGGCTACGACGGGATT
B21: UCUAGAU (DNA:RNA)
RNA: B5 RNA with G27U, G28A, C30A
DNA 1: CAATCTGAATTCCGGTCTCCC
DNA 2: TGGTGGCTACGACGGGATT
B22: UCUCCGU (DNA:RNA)
RNA: B5 RNA with G27U, G28C, G29C, C30G
DNA 1: CAATCTGAATTCCGGTCTCCC
DNA 2: TGGTGGCTACGACGGGATT
B23: UACCGGU (DNA:RNA)
RNA: B5 RNA with C26A, G27C, G28C, C30G
DNA 1: CAATCTGAATTCCGGTCTCCC
DNA 2: TGGTGGCTACGACGGGATT
B24: CAGACAG (DNA:RNA)
RNA: B1 RNA with U26A, U27G, A29C, U30A, C31G
DNA 1: CAATCTGAATTCCGGTCTCCC
DNA 2: TGGTGGCTACGACGGGATT
B25: CGUUGGC (DNA:RNA)
RNA: B1 RNA with U26G, A28U, A29G, U30G
DNA 1: CAATCTGAATTCCGGTCTCCC
DNA 2: TGGTGGCTACGACGGGATT
B26: AAGUGUU (DNA:RNA)
RNA: B5 RNA with U25A, C26A, G28U, C30U
DNA 1: CAATCTGAATTCCGGTCTCCC
DNA 2: TGGTGGCTACGACGGGATT
B27: GGCAUUA (DNA:RNA)
RNA: B1 RNA with C25G, U26G, U27C, A29U, C31A
DNA 1: CAATCTGAATTCCGGTCTCCC
DNA 2: TGGTGGCTACGACGGGATT
B28: UCUUAGU (DNA:RNA)
RNA: B5 RNA with G27U, G28U, G29A, C30G
DNA 1: CAATCTGAATTCCGGTCTCCC
DNA 2: TGGTGGCTACGACGGGATT
B29: AGUUUUA (DNA:RNA)
RNA: B1 RNA with C25A, U26G, A28U, A29U, C31A
DNA 1: CAATCTGAATTCCGGTCTCCC
DNA 2: TGGTGGCTACGACGGGATT
B30: GGAUAUA (DNA:RNA)
RNA: B1 RNA with C25G, U26G, U27A, A28U, C31A
DNA 1: CAATCTGAATTCCGGTCTCCC
DNA 2: TGGTGGCTACGACGGGATT
B31: CGGAAGA (DNA:RNA)
RNA: B1 RNA with U26G, U27G, U30G, C31A
DNA 1: CAATCTGAATTCCGGTCTCCC
DNA 2: TGGTGGCTACGACGGGATT

Each binder was assayed against T1, RBFOX1 RRM (assay: EMSA; HiTS-Eq, 1 nM pool, 10 min; buffer printed only for the single-RNA assays: 10 mM Tris pH 7.5, 150 mM NaCl, 3.4 mM EDTA, 0.001% NP-40, 30 C). Details: tags: His6 N-terminal (pET28a); label: 5' 32P.
Method in brief: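 Purified RbFox RRM (wild type or mutant) was equilibrated for 10 min in 50 µL with 1 nM of a 5′-radiolabelled pool of RNA with 7 randomized nucleotides, its flanks annealed to DNA oligonucleotides, across increasing protein concentrations. Free RNA was separated by 8% native PAGE, excised, reverse-transcribed, PCR-barcoded and sequenced on an Illumina HiSeq 2500. Relative association constants came from read-count changes of each variant against the control reaction, normalised to the cognate motif.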

Binder	binding signal
B1	0.0071 KA relative to UGCAUGU
B2	0.00315 KA relative to UGCAUGU
B3	0.000993 KA relative to UGCAUGU
B4	0.000933 KA relative to UGCAUGU
B5	0.00844 KA relative to UGCAUGU
B6	0.014 KA relative to UGCAUGU
B7	0.0123 KA relative to UGCAUGU
B8	0.0199 KA relative to UGCAUGU
B9	0.0158 KA relative to UGCAUGU
B10	0.0107 KA relative to UGCAUGU
B11	0.0126 KA relative to UGCAUGU
B12	0.0145 KA relative to UGCAUGU
B13	0.0102 KA relative to UGCAUGU
B14	0.0199 KA relative to UGCAUGU
B15	0.00992 KA relative to UGCAUGU
B16	0.021 KA relative to UGCAUGU

Binder	binding signal
B17	0.0143 KA relative to UGCAUGU
B18	0.00479 KA relative to UGCAUGU
B19	0.0135 KA relative to UGCAUGU
B20	0.0115 KA relative to UGCAUGU
B21	0.0067 KA relative to UGCAUGU
B22	0.0115 KA relative to UGCAUGU
B23	0.00746 KA relative to UGCAUGU
B24	0.00766 KA relative to UGCAUGU
B25	0.017 KA relative to UGCAUGU
B26	0.01 KA relative to UGCAUGU
B27	0.00291 KA relative to UGCAUGU
B28	0.0121 KA relative to UGCAUGU
B29	0.00324 KA relative to UGCAUGU
B30	0.00821 KA relative to UGCAUGU
B31	0.0191 KA relative to UGCAUGU
